# Assay results as given in PubChem BioAssay AID720709 (National Center for Advancing Translational Sciences (NCATS), 2013).
# The campaign covered roughly 360,000 compounds. About 520 (0.14%) were called active. Inconclusive results, whose numbers are uncertain, are shown with a selection of clear calls. Calls come from the whole dose curve; as a rule, active = well fitted inhibition curve with a large enough effect; inconclusive = small, poorly fitted or top-dose-only effect; inactive = no such curve, though single readings can be large or run the other way. Potencies of inconclusive entries are left out as doubtful fits.
# Target: Rap guanine nucleotide exchange factor 3 (Homo sapiens) (UniProt O95398)
# UniProt O95398, sequence (O95398 whole entry, looked up): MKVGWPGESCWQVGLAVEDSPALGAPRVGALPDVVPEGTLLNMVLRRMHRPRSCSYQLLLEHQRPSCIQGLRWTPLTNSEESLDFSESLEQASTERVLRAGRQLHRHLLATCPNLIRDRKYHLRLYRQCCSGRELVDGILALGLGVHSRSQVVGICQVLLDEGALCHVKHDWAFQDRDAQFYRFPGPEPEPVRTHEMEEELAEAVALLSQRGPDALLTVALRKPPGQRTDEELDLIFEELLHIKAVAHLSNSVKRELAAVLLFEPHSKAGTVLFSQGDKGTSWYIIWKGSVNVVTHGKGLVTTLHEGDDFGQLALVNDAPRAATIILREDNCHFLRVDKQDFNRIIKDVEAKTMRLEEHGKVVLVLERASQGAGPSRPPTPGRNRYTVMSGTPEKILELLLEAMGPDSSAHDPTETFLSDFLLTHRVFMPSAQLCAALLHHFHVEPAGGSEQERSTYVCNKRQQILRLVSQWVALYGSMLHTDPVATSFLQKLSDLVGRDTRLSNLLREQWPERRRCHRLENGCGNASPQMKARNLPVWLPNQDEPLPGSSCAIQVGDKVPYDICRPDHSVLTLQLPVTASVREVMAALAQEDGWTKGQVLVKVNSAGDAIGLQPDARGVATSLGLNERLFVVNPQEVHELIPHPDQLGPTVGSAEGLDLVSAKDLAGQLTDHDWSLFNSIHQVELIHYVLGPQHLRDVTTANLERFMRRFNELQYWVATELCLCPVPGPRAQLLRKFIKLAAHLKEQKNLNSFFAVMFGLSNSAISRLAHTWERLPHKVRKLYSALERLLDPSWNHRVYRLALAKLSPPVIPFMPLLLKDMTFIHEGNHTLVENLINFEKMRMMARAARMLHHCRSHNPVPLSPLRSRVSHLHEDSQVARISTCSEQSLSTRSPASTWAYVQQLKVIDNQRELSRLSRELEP
# Experiment: qHTS for Antagonist of cAMP-regulated guanine nucleotide exchange factor 3 (EPAC1): primary screen; note: nearly all actives have a fitted effect of over 50% in size;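 for activity change, negative = inhibition: plate controls were vehicle for no effect and positive control for full effect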
# Settings: EPAC1 GEF assay, Rap1b-BODIPY-GDP exchange fluorescence; activity change, negative = inhibition: at 115 µM (top of the series)
# Potency is the fitted concentration of half-maximal effect; tags give direction and shape of the fitted curve.
SMILES,Potency,"activity change, negative = inhibition"
FC(F)(F)c1ccc(-c2nnc(-c3cccnc3)o2)cc1,"inconclusive [inhibitor, partial curve]",
COc1ccc2c(c1)CC/C(=C\c1ccc(OC)c(Cn3nc(C)cc3C)c1)C2=O,"inconclusive [inhibitor, partial curve]",
N#Cc1cc(Sc2ccccn2)c([N+](=O)[O-])cc1C#N,"inconclusive [inhibitor, partial curve]",
Nc1nc2ccccc2n1/N=C/c1ccc(-c2ccccc2)o1,,inactive: -12.8%
COc1ccc([C@H]2C=C(C(=O)O)O[C@@H](OCCCCO)C2)cc1,"inconclusive [inhibitor, partial curve, poor fit]",
COc1ccc(/C=C2/SC(=S)N(Cc3ccccc3)C2=O)cc1O,,inactive: -21.4%
Cc1ccccc1CNC(=O)c1cc(COc2ccc(F)cc2F)on1,"inconclusive [inhibitor, partial curve, poor fit]",
Cc1c(C(=O)NCc2ccc3c(c2)OCO3)oc2ccc(S(=O)(=O)N3CCCC3)cc12,"inconclusive [inhibitor, full curve, poor fit]",
Cc1sc2ncnc(SCC(=O)NC3CCCC3)c2c1C,"inconclusive [inhibitor, full curve, poor fit]",
O=C(NCCc1ccc(Cl)cc1)c1ccc2[nH]c(=O)c(=O)[nH]c2c1,"inconclusive [inhibitor, partial curve]",
O=C(O)CCC(=O)Nc1ccccc1Oc1ccccc1,,inactive: 9.69%
Fc1ccccc1CSc1ncnc2c1ncn2C1CCCO1 (stereo unspecified),,inactive: -29.5%
CN1N=C(C(C)(C)C)CC1=O,"inconclusive [inhibitor, partial curve]",
COC(=O)C1=CN(c2ccc(OC)cc2)C(N)=C(C#N)C1c1ccc(OC)cc1 (stereo unspecified),"inconclusive [inhibitor, partial curve, poor fit]",
COCCCNC(=O)c1cccc(S(=O)(=O)N2CC3(C)CC2CC(C)(C)C3)c1 (stereo unspecified),"inconclusive [inhibitor, single point]",
CC1CCc2c(C(=O)Nc3nccs3)csc2C1 (stereo unspecified),,inactive: 9.82%
CCc1ccccc1N1CSC2=C(C#N)C(c3ccccc3F)CC(=O)N2C1 (stereo unspecified),,inactive: -15.8%
O=[N+]([O-])c1cc(/C=N/n2c(-c3ccncc3)n[nH]c2=S)ccc1Cl,"inconclusive [inhibitor, single point]",
CN(C)CCCNC(NC(=O)/C=C/c1ccccc1)C(Cl)(Cl)Cl (stereo unspecified),,inactive: 5.26%
O=c1oc(-c2ccc(O)c(O)c2)cc2cc(O)cc(O)c12,"inconclusive [inhibitor, partial curve]",
O=C1c2cccc3cccc(c23)C(=O)N1CCCSc1ncn[nH]1,,inactive: 3.06%
CCOC(=O)c1cc(-c2ccccc2)nn1-c1ccccn1,,inactive: 13.2%
COc1ccc(Br)c(Cn2c(C)c(C(=O)NCc3ccc(F)cc3)sc2=O)c1,,inactive: -2.23%
COc1cccc(OCc2cc(C(=O)N(C)C3CC(C)(C)NC(C)(C)C3)no2)c1,"inconclusive [inhibitor, full curve, poor fit]",

SMILES,Potency,"activity change, negative = inhibition"
CCSc1oc(-c2cccs2)nc1S(=O)(=O)c1ccccc1,"inconclusive [inhibitor, single point]",
COc1cccc(C(=O)C2CCCN(C/C=C/c3ccccc3OC)C2)c1 (stereo unspecified),,inactive: -28.7%
C#CCOc1c(/C=C\c2nc(O)c([N+](=O)[O-])c(=O)[nH]2)cc(Br)cc1OC,"inconclusive [inhibitor, full curve]",
O=C(N/N=C/c1ccco1)c1cccc(NC(=O)c2cccc(Cl)c2)c1,"inconclusive [inhibitor, partial curve]",
Cc1ccc(C)c(S(=O)(=O)N2CCN(CC(=O)NC(=O)NCc3ccco3)CC2)c1,"inconclusive [inhibitor, single point]",
CSc1ccccc1NC(=O)c1ccccc1C,"inconclusive [inhibitor, single point]",
O=C(CNc1cccc(S(=O)(=O)N2CCCCC2)c1)Nc1cccc(F)c1,"inconclusive [inhibitor, partial curve]",
Nc1cc(OC(=O)c2cccs2)nn1S(=O)(=O)c1ccc(F)cc1,"inconclusive [inhibitor, partial curve]",
c1ccc(NN(Cc2ccccn2)c2ccccc2)cc1,,inactive: -14.3%
CCc1nnc(NC(=O)C(c2ccccc2)c2ccccc2)s1,"inconclusive [inhibitor, partial curve, poor fit]",
N/C(=N\OC(=O)c1ccc(Cl)cc1)c1ccc(Cl)cc1,,inactive: 6.72%
O=C(c1cc(-c2ccccc2O)on1)N1CCCCCC1,,inactive: -2.35%
O=C(c1ccc(Cl)s1)N1CCc2ccccc21,,inactive: 3.96%
O=C(CCN1CCN(C/C=C/c2ccccc2)CC1)Nc1ccccc1,"inconclusive [inhibitor, full curve, poor fit]",
Cc1cc(NC(=O)CSc2sc3c(O)cc(=O)[nH]c3c2C#N)ccc1Br,"inconclusive [inhibitor, partial curve, poor fit]",
O=C(c1cc2cc(Cl)ccc2[nH]1)N1CCCCC1,"inconclusive [inhibitor, full curve, poor fit]",
O=C(C1CCCO1)N1CCN(C(=S)Nc2ccc(Cl)cc2)CC1 (stereo unspecified),"inconclusive [inhibitor, single point]",
COc1cc(/C=N/Nc2nc3ccccc3[nH]c2=O)ccc1O,"inconclusive [inhibitor, single point]",
CCOC(=O)C1=C(Cc2ccc(Cl)cc2)C(=O)c2ccccc2C1=O,,inactive: -15.6%
O=C(COC(=O)c1ccccc1NCCO)Nc1cccc(S(=O)(=O)NC2=NCCCCC2)c1,"inconclusive [inhibitor, single point]",
Cc1c(NS(=O)(=O)c2ccc(NCCN3CCOCC3)c([N+](=O)[O-])c2)c(=O)n(-c2ccccc2)n1C,,inactive: 10.7%
CC(C)(C)NC(=O)NC(=O)COC(=O)COc1ccc2c(c1)CCC2,"inconclusive [inhibitor, single point]",
O=[N+]([O-])c1cc([N+](=O)[O-])c2oc(-c3ccccc3)c(Br)c2c1O,active: 25.1 µM,
Cc1noc(/C=C/N(C)C)c1S(=O)(=O)N1CCCC(C(=O)N2CCCCC2)C1 (stereo unspecified),"inconclusive [inhibitor, single point]",

SMILES,Potency,"activity change, negative = inhibition"
CCOc1ccc(CC(=O)Nc2ccc(S(=O)(=O)Nc3cc(C)on3)cc2)cc1OCC,,inactive: 4.44%
O=C(N/N=C/c1cc(Cl)ccc1O)C(=O)Nc1ccccc1OC(F)(F)C(F)F,,inactive: -2.93%
COc1cc(NC(=S)NC(=O)c2cccs2)ccc1NC(=O)C(C)C,"inconclusive [inhibitor, single point]",
O=C(CCCn1c(SCC(=O)Nc2ccccc2Cl)nc2ccccc2c1=O)NCC1CCCO1 (stereo unspecified),"inconclusive [inhibitor, single point]",
Cc1[nH]n(-c2ccc([N+](=O)[O-])cc2)c(=O)c1C=NCCc1ccc(S(N)(=O)=O)cc1,"inconclusive [inhibitor, partial curve]",
C=CCNc1nc(-c2sc(NC(=O)C(C)(C)C)nc2C)c(-n2cc(-c3ccccc3)nn2)s1,,inactive: -13.3%
CC1(OC(=O)CCc2ccccc2)C(=O)C=C2C=C(c3ccc(C#N)cc3)N(C3CCCCC3)C=C2C1=O (stereo unspecified),,inactive: -0.883%
CC(C)(C)NS(=O)(=O)c1ccc(NC(=O)C2CC(=O)N(CCc3ccc(F)cc3)C2)cc1 (stereo unspecified),,inactive: -0.024%
CCSc1nnc(NC(=O)c2ccc3c(c2)OCO3)s1,,inactive: -3.35%
C[C@]12CCC(=O)C[C@@H]1CC[C@@H]1[C@@H]2CC[C@]2(C)[C@@H](C(=O)COC(=O)CCC(=O)O)CC[C@@H]12,"inconclusive [inhibitor, single point]",
COc1ccc(C2C3=C(CCCC3=O)NC3=C2C(=O)c2ccccc23)cc1 (stereo unspecified),"inconclusive [inhibitor, single point]",
COc1ccc2[nH]c3c(c2c1)CCN1C(=O)N([C@@H](C)C(=O)NC2CCCCC2C)C(=O)[C@]31C (stereo partly specified),"inconclusive [inhibitor, single point]",
CCN1/C(=C\C=C2\C(=O)N(c3ccccc3)C(=S)N2C)Sc2ccccc21,"inconclusive [inhibitor, single point]",
O=C1C2CC=C(Cl)CC2C(=O)N1CCc1ccccc1 (stereo unspecified),,inactive: -0.271%
O=C(OCC(=O)N1N=C(c2ccc(Cl)cc2)CC1c1ccco1)c1cccnc1 (stereo unspecified),"inconclusive [inhibitor, partial curve]",
NS(=O)(=O)c1ccc(NS(=O)(=O)c2ccc(NC(=S)Nc3ccccc3)cc2)cc1,,inactive: 11.9%
Oc1c(C(Nc2nccs2)c2ccc(C(F)(F)F)cc2)ccc2cccnc12 (stereo unspecified),"inconclusive [inhibitor, full curve]",
Oc1ccc(-c2nnc(Nc3ccccc3)c3ccccc23)cc1,"inconclusive [inhibitor, single point]",
Cc1ccc(NC(=O)CN2CCN(Cc3ccccc3)CC2)c(Br)c1,,inactive: 8.09%
OC1c2cc(Cl)cc(Cl)c2N=C2CCCN21 (stereo unspecified),"inconclusive [inhibitor, single point]",
COc1ccccc1N1CSC2=C(C#N)C(c3ccc(SC)cc3)CC(=O)N2C1 (stereo unspecified),"inconclusive [inhibitor, single point]",
CCN(CC)c1ccc2c(C)c(Cl)c(=O)oc2c1,,inactive: -17.7%
COc1cc2c(cc1OC)CN(C(=O)C1CCCN1S(=O)(=O)c1ccc(C)cc1)CC2 (stereo unspecified),"inconclusive [inhibitor, partial curve]",
